Results: the supplement of paper PMC12297408
Counter-ions that a name gives are not always drawn. Hit rate of the full screen: of about 1,300 compounds, about 40 (3%) showed activity. The list shows a part of the results.

System: Plasmodium falciparum NF54/iGP1_RE9H ulg8 stage V gametocytes
Experiment: gametocyte viability (luciferase signal relative to DMSO control) (% of DMSO control); higher = less gametocytocidal activity, active = 50 or less
Conditions: exposure time: 72 h
Method in brief: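 NF54/iGP1_RE9Hulg8 stage V gametocytes (day 12; ~2.5% gametocytemia, 3% hematocrit) in medium with 0.5% Albumax II were added to 96-well plates of nanolitre-spotted compounds (10 mM DMSO stocks), giving 10 µM or 1 µM, one well each. Plates were incubated 72 h at 37 °C. Then 90 µl was mixed with 10 µl D-luciferin (30 mg/ml) and luminescence was read on an IVIS Lumina II. Viability is relative to the mean of plate DMSO vehicle controls.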

CN1C[C@H](CNC(=O)OCc2ccccc2)C[C@@H]2c3cccc4c3c(cn4C)C[C@H]21 [Metergoline]
gametocyte viability (concentration: 1 µM): inactive: 91.9
gametocyte viability (concentration: 10 µM): inactive: 76.2

CC(C)c1cccc(C(C)C)c1O [Propofol]
gametocyte viability (concentration: 1 µM): inactive: 88.4
gametocyte viability (concentration: 10 µM): inactive: 83.7

C[C@]12CC[C@H](O)C[C@H]1CC[C@@H]1[C@@H]2CC[C@]2(C)[C@@H](C3=CC(=O)OC3)CC[C@]12O [Digitoxigenin]
gametocyte viability (concentration: 1 µM): inactive: 69.6
gametocyte viability (concentration: 10 µM): inactive: 68.6

CC[N+]1(C)CCCC(OC(=O)C(O)(c2ccccc2)c2ccccc2)C1 (configuration not stated) [Pipenzolate bromide]
gametocyte viability (concentration: 1 µM): inactive: 87.5
gametocyte viability (concentration: 10 µM): inactive: 83.4

c1ccc2c(c1)OCC(C1=NCCN1)O2 (configuration not stated) [Idazoxan hydrochloride]
gametocyte viability (concentration: 1 µM): inactive: 97.6
gametocyte viability (concentration: 10 µM): inactive: 96.1

CCCCCC[C@H]1C(=O)O[C@H](C)[C@H](NC(=O)c2cccc(NC=O)c2O)C(=O)O[C@@H](C)[C@@H]1OC(=O)CC(C)C [Antimycin A]
gametocyte viability (concentration: 1 µM): inactive: 86.4
gametocyte viability (concentration: 10 µM): inactive: 94.3

COc1cc2c(c(OC)c1OC)-c1ccc(OC)c(=O)cc1[C@@H](NC(C)=O)CC2 [Colchicine]
gametocyte viability (concentration: 1 µM): inactive: 91.5
gametocyte viability (concentration: 10 µM): inactive: 92.5

CC1C=CC=CCCC=CC=CC=CC=CC(OC2OC(C)C(O)C(N)C2O)CC2OC(O)(CC(O)C(O)CCC(O)CC(O)CC(O)CC(=O)OC(C)C(C)C1O)CC(O)C2C(=O)O (configuration not stated) [Nystatine]
gametocyte viability (concentration: 1 µM): inactive: 84.3
gametocyte viability (concentration: 10 µM): inactive: 88.1

O=c1[nH]oc2c1CCNC2 [THIP Hydrochloride]
gametocyte viability (concentration: 1 µM): inactive: 88
gametocyte viability (concentration: 10 µM): inactive: 94.1

Cc1cc(C(C#N)c2ccc(Cl)cc2)c(Cl)cc1NC(=O)c1cc(I)cc(I)c1O (configuration not stated) [Closantel]
gametocyte viability (concentration: 1 µM): inactive: 100
gametocyte viability (concentration: 10 µM): inactive: 105

C[C@@H]1C[C@@H]([C@H](O)CC2CC(=O)NC(=O)C2)C(=O)[C@@H](C)C1 [Cycloheximide]
gametocyte viability (concentration: 1 µM): inactive: 81.8
gametocyte viability (concentration: 10 µM): inactive: 78.9

CC[C@@H](CO)NC(=O)[C@@H]1C=C2c3cccc4[nH]cc(c34)C[C@H]2N(C)C1 [Methylergometrine maleate]
gametocyte viability (concentration: 1 µM): inactive: 81.1
gametocyte viability (concentration: 10 µM): inactive: 79.9

CC(O)(CS(=O)(=O)c1ccc(F)cc1)C(=O)Nc1ccc(C#N)c(C(F)(F)F)c1 (configuration not stated) [Bicalutamide]
gametocyte viability (concentration: 1 µM): inactive: 87.3
gametocyte viability (concentration: 10 µM): inactive: 75.9

CCOC(=O)c1cncn1[C@H](C)c1ccccc1 [Etomidate]
gametocyte viability (concentration: 1 µM): inactive: 87.9
gametocyte viability (concentration: 10 µM): inactive: 81

O=C(CCCN1CCC2(CC1)C(=O)NCN2c1ccccc1)c1ccc(F)cc1 [Spiperone]
gametocyte viability (concentration: 1 µM): inactive: 86.4
gametocyte viability (concentration: 10 µM): inactive: 87.6

CC(N)C(O)c1ccccc1 (configuration not stated) [Phenylpropanolamine hydrochloride]
gametocyte viability (concentration: 1 µM): inactive: 84
gametocyte viability (concentration: 10 µM): inactive: 86.2
